Measured values taken from the supplement of paper PMC9446081.
Hit rate of the full screen: of about 39,000 compounds, about 220 (0.56%) showed activity. This is one part of the list.

What follows are compounds tested on Escherichia coli K-12 BW25113 (assay: relative growth (OD600 normalised to plate interquartile mean) (fraction); higher = less growth inhibition, active = 0.2 or less). Conditions: 50 µM; LB; incubation time: overnight (16-24 h).
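Also: static incubation at 37 °C against the wild-type strain, values averaged over two biological replicates.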

| SMILES | relative growth |
| --- | --- |
| C[C@@H]1CN([C@@H](C)CO)C(=O)c2cc(NC(=O)c3ccccc3)ccc2O[C@@H](C)CCCCO[C@H]1CN(C)Cc1ccc(C(=O)O)cc1 | inactive: 0.995 |
| C[C@@H]1CN([C@H](C)CO)C(=O)c2cccc(NS(=O)(=O)c3ccccc3)c2O[C@@H]1CN(C)Cc1ccc(-c2ccccc2)cc1 | inactive: 1.01 |
| COCC#Cc1ccc([C@@H]2[C@H]3CN(C(=O)c4ccncc4)CC(=O)N3[C@H]2CO)cc1 | inactive: 0.94 |
| CN1N=C(N)c2cn([C@@H]3O[C@H](COP(=O)(O)O)[C@@H](O)[C@H]3O)c3ncnc1c23 | inactive: 0.949 |
| C[C@@H]1CCCCO[C@@H](CN(C)Cc2ccc3c(c2)OCO3)[C@@H](C)CN([C@@H](C)CO)C(=O)c2cc(NC(=O)Cc3ccccc3)ccc2O1 | inactive: 1.04 |
| C[C@@H]1CCCCO[C@@H](CN(C)S(=O)(=O)c2cn(C)cn2)[C@H](C)CN([C@H](C)CO)C(=O)c2cc(N(C)C)ccc2O1 | inactive: 1 |
| Cc1noc(C)c1S(=O)(=O)N(C)C[C@H]1OCCCC[C@@H](C)Oc2ccc(N(C)C)cc2C(=O)N([C@@H](C)CO)C[C@@H]1C | inactive: 1 |
| CC(=O)Nc1ccc(CC(=O)O)cc1 | inactive: 1.17 |
| CCCC#Cc1cnc2c(c1)C(=O)N([C@H](C)CO)C[C@@H](C)[C@@H](CN(C)S(=O)(=O)c1cccc(OC)c1)O2 | inactive: 1.03 |
| CNCc1n[nH]c2c1CCC2 | inactive: 1.03 |
| COc1ccc([Si](C)(C)[C@@H]2[C@@H](CC(=O)N3Cc4ccccc4C[C@H]3CO)O[C@]3(C(=O)N(Cc4ccc(N5CCOC5=O)cc4)c4ccccc43)[C@H]2C)cc1 | inactive: 1.04 |
| C[C@@H]1CN([C@@H](C)CO)C(=O)c2c(c3ccccc3n2C)-c2ccccc2CO[C@H]1CN(C)Cc1ccccc1 | inactive: 0.994 |
| C[C@@H]1CN([C@@H](C)CO)C(=O)c2cc(NC(=O)Cc3ccccc3)ccc2O[C@@H]1CN(C)Cc1ccc(Cl)c(Cl)c1 | inactive: 1 |
| CC(CCC(=O)NCC(=O)O)C1CCC2C3C(O)CC4CC(O)CCC4(C)C3CC(O)C12C (configuration not stated) | inactive: 0.916 |
| Cc1[nH]c(=O)[nH]c(=O)c1S(=O)(=O)N1CCC[C@H](C(=O)NCCc2c[nH]c3ccc(F)cc23)C1 | inactive: 1.02 |
| Cc1nc2n(c(=O)c1CCN1CCC(c3noc4cc(F)ccc34)CC1)CCCC2 | inactive: 1.1 |
| C[C@H]1CCCCO[C@H](CN(C)Cc2ccccc2)[C@@H](C)CN([C@@H](C)CO)C(=O)c2cc(NS(=O)(=O)c3ccccc3)ccc2O1 | inactive: 0.997 |
| COc1ccc(S(=O)(=O)N(C)C[C@H]2OCCCC[C@H](C)Oc3ccc(NC(=O)c4ccccc4)cc3C(=O)N([C@@H](C)CO)C[C@H]2C)cc1 | inactive: 1.01 |
| C[C@H]1CN([C@@H](C)CO)C(=O)c2cc(/C=C/c3ccccc3)cnc2O[C@@H]1CN(C)C(=O)c1cnccn1 | inactive: 0.998 |
| Cc1ccc(S(=O)(=O)N(C)C[C@H]2OCCCC[C@H](C)Oc3ccc(NC(=O)CCC(F)(F)F)cc3C(=O)N([C@H](C)CO)C[C@@H]2C)cc1 | inactive: 1.04 |
| COc1cc(/C=C/C(=O)CC2=C[C@H](c3ccc(O)c(OC)c3)SC(NCc3ccco3)=N2)ccc1O | inactive: 0.941 |

| SMILES | relative growth |
| --- | --- |
| COc1ccc(CN(C)C[C@@H]2OCCCC[C@@H](C)Oc3ccc(NC(=O)Nc4ccc(OC)cc4)cc3C(=O)N([C@@H](C)CO)C[C@H]2C)cc1 | inactive: 0.975 |
| C[C@@H]1CCCCO[C@@H](CN(C)C(=O)c2ccccc2)[C@H](C)CN([C@@H](C)CO)C(=O)c2cc(NC(=O)NC3CCCCC3)ccc2O1 | inactive: 0.998 |
| Cc1ccc(S(=O)(=O)N[C@H]2C=C[C@@H](CC(=O)NCCN3CCCCC3)O[C@@H]2CO)cc1 | inactive: 1 |
| CCN1CCO[C@@]2(O)C=CC(=O)C=C12 | inactive: 0.934 |
| C[C@H]1CCCCO[C@H](CN(C)CC2CC2)[C@@H](C)CN([C@@H](C)CO)C(=O)c2cc(NS(C)(=O)=O)ccc2O1 | inactive: 0.906 |
| O=C(NCCN1CCCC1)[C@@H]1[C@@H](CO)[C@@H]2Cn3c(cccc3=O)[C@H]1N2C(=O)c1ccccc1 | inactive: 1.02 |
| COCC#Cc1cnc2c(c1)C(=O)N([C@@H](C)CO)C[C@@H](C)[C@H](CN(C)C(=O)CCN1CCCCC1)O2 | inactive: 1.01 |
| COc1ccc(S(=O)(=O)N(C)C[C@@H]2OCCCC[C@H](C)Oc3ccc(NS(=O)(=O)c4ccc(Cl)cc4)cc3C(=O)N([C@H](C)CO)C[C@@H]2C)cc1 | inactive: 1.03 |
| C[C@H](CO)N1C[C@H](C)[C@H](CN(C)C(=O)Nc2ccc(F)cc2)OCCCC[C@H](C)Oc2ccc(NS(=O)(=O)c3ccc(F)cc3)cc2C1=O | inactive: 1 |
| C[C@@H]1CCCCO[C@H](CN(C)C)[C@H](C)CN([C@@H](C)CO)C(=O)c2cc(NS(=O)(=O)c3cn(C)cn3)ccc2O1 | inactive: 0.994 |
| C[C@@H]1CN([C@@H](C)CO)C(=O)CCCn2nncc2CO[C@H]1CN(C)C(=O)Nc1cccc(C(F)(F)F)c1 | inactive: 0.985 |
| COC(=O)c1c2oc(c1C(=O)OC)C(=O)N[C@H](Cc1ccccc1)Cn1cc(nn1)[C@@H](Cc1ccccc1)NC(=O)N[C@@H](COC(=O)NCCCCCC(=O)NO)CC2 | inactive: 1.01 |
| C[C@H]1CN([C@@H](C)CO)C(=O)c2cc(NC(=O)Cc3ccccc3)ccc2O[C@@H]1CN(C)S(=O)(=O)c1cccs1 | inactive: 0.993 |
| C[C@H]1CN([C@@H](C)CO)C(=O)c2c(c3ccccc3n2C)-c2ccccc2CO[C@@H]1CN(C)Cc1ccc(-c2ccccc2)cc1 | inactive: 1.03 |
| Nc1ccc(C(=O)N(CCO)CCO)cc1 | inactive: 0.997 |
| C[C@@H]1CN([C@H](C)CO)C(=O)Cc2cc(NC(=O)Nc3cccc4ccccc34)ccc2O[C@@H]1CN(C)Cc1ccc(C(F)(F)F)cc1 | inactive: 1.06 |
| CCCNC(=O)N(C)C[C@H]1Oc2ncc(-c3ccc(C(=O)N(C)C)cc3)cc2C(=O)N([C@H](C)CO)C[C@@H]1C | inactive: 1.02 |
| c1ccc(-c2n[nH]c3c2CCC3)cc1 | inactive: 0.933 |
| CN(C)CCCNC(=O)C[C@@H]1CC[C@H]2[C@H](COc3ccc(NC(=O)c4ccc5c(c4)OCO5)cc3C(=O)N2C)O1 | inactive: 1.01 |
| C[C@H](CO)N1C[C@H](C)[C@@H](CN(C)Cc2ccc(Oc3ccccc3)cc2)Oc2ccc(NS(=O)(=O)c3ccc(F)cc3)cc2C1=O | inactive: 0.977 |
| Cc1noc(C)c1NC(=O)Nc1cccc2c1O[C@@H](CN(C)S(=O)(=O)c1cn(C)cn1)[C@@H](C)CN([C@H](C)CO)C2=O | inactive: 1.04 |

| SMILES | relative growth |
| --- | --- |
| COc1ccc(S(=O)(=O)N[C@@H]2C=C[C@@H](CC(=O)N3CCN(c4ccccc4)CC3)O[C@@H]2CO)cc1 | inactive: 1.01 |
| CC(C)NC(=O)Nc1ccc2c(c1)C(=O)N([C@@H](C)CO)C[C@@H](C)[C@@H](CN(C)Cc1ccccc1)OCCCC[C@@H](C)O2 | inactive: 1.01 |
| COc1ccccc1NC(=O)N(C)C[C@H]1Oc2ncc(C#CCN(C)C)cc2C(=O)N([C@@H](C)CO)C[C@@H]1C | inactive: 1.04 |
| C[C@@H]1CN([C@@H](C)CO)S(=O)(=O)c2ccc(Br)cc2O[C@@H]1CN(C)C(=O)c1ccncc1 | inactive: 0.981 |
| Cc1noc(C)c1NC(=O)Nc1ccc2c(c1)C(=O)N([C@H](C)CO)C[C@H](C)[C@@H](CN(C)S(=O)(=O)c1ccc(Cl)cc1)OCCCC[C@H](C)O2 | inactive: 0.988 |
| CC(C)NC(=O)Nc1ccc2c(c1)CC(=O)N([C@@H](C)CO)C[C@H](C)[C@@H](CN(C)S(=O)(=O)c1cn(C)cn1)O2 | inactive: 0.972 |
| CO[C@@H]1CN(C)C(=O)c2cc(NS(=O)(=O)CC(F)(F)F)ccc2OC[C@H](C)N(Cc2cccnc2)C[C@H]1C | inactive: 0.97 |
| CC(C)(C)OC(=O)N1CCC(N)CC1 | inactive: 0.98 |
| COC(=O)C[C@](O)(CCCC(C)(C)O)C(=O)O[C@@H]1C(OC)=C[C@]23CCCN2CCc2cc4c(cc2[C@H]13)OCO4 | inactive: 1.01 |
| COc1ccc2c3c([nH]c2c1)[C@H](CO)N(C[C@]13CN(CC2CCCCC2)C1)S(=O)(=O)c1cn(cn1)C | inactive: 0.966 |
| C[C@@H]1CN([C@@H](C)CO)C(=O)c2cc(NS(=O)(=O)c3ccc(Cl)cc3)ccc2O[C@@H]1CN(C)C(=O)Nc1ccc(C(F)(F)F)cc1 | inactive: 0.99 |
| O=C(N1CCCC1)N1CCNCC1 | inactive: 0.978 |
| O=C(COc1ccccc1)N1CCNC1=O | inactive: 0.995 |
| C[C@H]1CN([C@@H](C)CO)C(=O)Cc2cc(NC(=O)Cc3ccccc3)ccc2O[C@H]1CN(C)S(=O)(=O)c1cccs1 | inactive: 1.01 |
| C[C@H](CO)N1C[C@H](C)[C@@H](CN(C)S(=O)(=O)c2cccs2)Oc2c(NC(=O)CCCN(C)C)cccc2C1=O | inactive: 0.993 |
| Cn1cnc(-c2cc3nccc(Oc4ccc(NC(=S)NC(=O)Cc5ccccc5)cc4F)c3s2)c1 | inactive: 1.05 |
| O=C(Cc1ccncc1)Nc1ccc2c(c1)[C@H]1C[C@@H](CC(=O)N3CCc4ccccc4C3)O[C@@H](CO)[C@H]1O2 | inactive: 1.03 |
| COc1ccc(S(=O)(=O)Nc2ccc3c(c2)C(=O)N([C@@H](C)CO)C[C@@H](C)[C@H](CN(C)S(=O)(=O)c2cn(C)cn2)O3)cc1 | inactive: 0.978 |
| N[C@@H](c1ccncc1)c1ccc(OCc2ccccc2)cc1 | inactive: 1 |
| C[C@H](CO)N1C[C@H](C)[C@H](CN(C)C(=O)Cc2ccccc2)OCCCC[C@H](C)Oc2ccc(NC(=O)Cc3ccccc3)cc2C1=O | inactive: 1.01 |
